# Reference: the supplement of paper PMC4604168 (melanoma cell lines)
# This is one part of the list. Repeats are few or missing, and single values can be far off.
# Assays:
# Experiment in all cases: cell count relative to DMSO control; melanoma cells; higher = more viable cells
# [1] = tested on: WM115; settings: library dose: low library concentration; 72 h
# [2] = tested on: WM1716; settings: library dose: low library concentration; 72 h
# [3] = tested on: WM1745; settings: library dose: low library concentration; 72 h
# [4] = tested on: WM3526; settings: library dose: low library concentration; 72 h
# [5] = tested on: WM3619; settings: library dose: low library concentration; 72 h
# [6] = tested on: WM451Lu; settings: library dose: low library concentration; 72 h
# [7] = tested on: 501Mel; settings: library dose: standard library concentration; 72 h
# [8] = tested on: A101D; settings: library dose: standard library concentration; 72 h
# [9] = tested on: A2058; settings: library dose: standard library concentration; 72 h
# [10] = tested on: A375; settings: library dose: standard library concentration; 72 h
compound,measurement,setting,value
"Cn1c(=O)n(-c2ccc(C(C)(C)C#N)cc2)c2c3cc(-c4cnc5ccccc5c4)ccc3ncc21 + C=CCNC1=C2C[C@@H](C)C[C@H](OC)[C@H](O)[C@@H](C)/C=C(\C)[C@H](OC(N)=O)[C@@H](OC)/C=C\C=C(/C)C(=O)NC(=CC1=O)C2=O [Tanespimycin] (first compound 0.004 µM, partner dose 0.002 µM)",cell count,[1],83.9%
same,cell count,[2],93.8%
same,cell count,[3],88.6%
same,cell count,[4],86.2%
same,cell count,[5],78.7%
same,cell count,[6],113%
"Cc1cn(-c2cc(NC(=O)c3ccc(C)c(Nc4nccc(-c5cccnc5)n4)c3)cc(C(F)(F)F)c2)cn1 [nilotinib] + NCC(=O)Nc1ccc(-n2nc(C(F)(F)F)cc2-c2ccc3c(ccc4ccccc43)c2)cc1 [OSU03012] (first compound 0.2 µM, partner dose 1 µM)",cell count,[1],84.5%
same,cell count,[2],97.5%
same,cell count,[3],71.8%
same,cell count,[4],60.9%
same,cell count,[5],118%
same,cell count,[6],59.1%
"Cc1cn(-c2cc(NC(=O)c3ccc(C)c(Nc4nccc(-c5cccnc5)n4)c3)cc(C(F)(F)F)c2)cn1 [nilotinib] + C=C(c1ccc(C(=O)O)cc1)c1cc2c(cc1C)C(C)(C)CCC2(C)C [Bexarotene] (first compound 0.2 µM, partner dose 2 µM)",cell count,[1],143%
same,cell count,[2],95.9%
same,cell count,[3],78%
same,cell count,[4],92.3%
same,cell count,[5],81.2%
same,cell count,[6],78.3%
"COc1ccc(C2=N[C@@H](c3ccc(Cl)cc3)[C@@H](c3ccc(Cl)cc3)N2C(=O)N2CCNC(=O)C2)c(OC(C)C)c1 [Nutlin-3] + CCN(CC)CCCCNc1ncc2cc(-c3cc(OC)cc(OC)c3)c(NC(=O)NC(C)(C)C)nc2n1 [PD173074] (first compound 0.1 µM, partner dose 0.1 µM)",cell count,[1],79.8%
same,cell count,[2],90.3%
same,cell count,[3],89.3%
same,cell count,[4],100%
same,cell count,[5],87.2%
same,cell count,[6],89.4%
"COc1ccc(C2=N[C@@H](c3ccc(Cl)cc3)[C@@H](c3ccc(Cl)cc3)N2C(=O)N2CCNC(=O)C2)c(OC(C)C)c1 [Nutlin-3] + Cc1nc(Nc2ncc(C(=O)Nc3c(C)cccc3Cl)s2)cc(N2CCN(CCO)CC2)n1 [dasatanib] (first compound 0.1 µM, partner dose 0.004 µM)",cell count,[1],75.3%
same,cell count,[2],85.9%
same,cell count,[3],63.5%
same,cell count,[4],96.1%
same,cell count,[5],82.1%
same,cell count,[6],97.3%
"COc1ccc(C2=N[C@@H](c3ccc(Cl)cc3)[C@@H](c3ccc(Cl)cc3)N2C(=O)N2CCNC(=O)C2)c(OC(C)C)c1 [Nutlin-3] + CS(=O)(=O)c1ccc(C(=O)Nc2ccc(Cl)c(-c3ccccn3)c2)c(Cl)c1 [vismodegib] (first compound 0.1 µM, partner dose 1 µM)",cell count,[1],91.5%
same,cell count,[2],77.1%
same,cell count,[3],111%
same,cell count,[4],96.8%
same,cell count,[5],87.3%
same,cell count,[6],95.3%
"COc1ccc(C2=N[C@@H](c3ccc(Cl)cc3)[C@@H](c3ccc(Cl)cc3)N2C(=O)N2CCNC(=O)C2)c(OC(C)C)c1 [Nutlin-3] + C[C@]1(c2nc3c(C(N)=O)cccc3[nH]2)CCCN1 [Veliparib] (first compound 0.1 µM, partner dose 1.4 µM)",cell count,[1],76%
same,cell count,[2],78.2%
same,cell count,[3],104%
same,cell count,[4],99.1%
same,cell count,[5],74.1%
same,cell count,[6],87%
"COc1ccc(C2=N[C@@H](c3ccc(Cl)cc3)[C@@H](c3ccc(Cl)cc3)N2C(=O)N2CCNC(=O)C2)c(OC(C)C)c1 [Nutlin-3] + O=C(Nc1ccccc1)c1cc([N+](=O)[O-])ccc1Cl [GW9662] (first compound 0.1 µM, partner dose 2 µM)",cell count,[1],95.8%
same,cell count,[2],76.1%
same,cell count,[3],87.1%
same,cell count,[4],96.7%
same,cell count,[5],74.5%
same,cell count,[6],105%
"Cc1cc(Nc2cc(N3CCN(C)CC3)nc(/C=C/c3ccccc3)n2)n[nH]1 + CCCCCCCCCCCC1=C(O)C(=O)C=C(O)C1=O [Embelin] (first compound 0.04 µM, partner dose 1.2 µM)",cell count,[1],99.5%
same,cell count,[2],108%
same,cell count,[3],82.4%
same,cell count,[4],84.1%
same,cell count,[5],101%
same,cell count,[6],125%
"CC(C)C[C@H](NC(=O)[C@H](Cc1ccccc1)NC(=O)c1cnccn1)B(O)O [Bortezomib] + CN1CCN(c2ccc3nc(-c4c(N)c5c(F)cccc5[nH]c4=O)[nH]c3c2)CC1 [Dovitinib] (first compound 0.001 µM, partner dose 0.1 µM)",cell count,[1],90.1%
same,cell count,[2],19.5%
same,cell count,[3],59.9%
same,cell count,[4],64.9%
same,cell count,[5],10.3%
same,cell count,[6],56.2%
"Cc1cn(-c2cc(NC(=O)c3ccc(C)c(Nc4nccc(-c5cccnc5)n4)c3)cc(C(F)(F)F)c2)cn1 [nilotinib] + CCCS(=O)(=O)Nc1ccc(F)c(C(=O)c2c[nH]c3ncc(Cl)cc23)c1F [PLX4720] (first compound 0.2 µM, partner dose 0.08 µM)",cell count,[1],99%
same,cell count,[2],103%
same,cell count,[3],79.6%
same,cell count,[5],80.7%
same,cell count,[6],93.8%
"CC(C)C[C@H](NC(=O)[C@H](Cc1ccccc1)NC(=O)c1cnccn1)B(O)O [Bortezomib] + Nc1ccn([C@@H]2O[C@H](CO)[C@@H](O)C2(F)F)c(=O)n1 [gemcitabine] (first compound 0.001 µM, partner dose 0.0004 µM)",cell count,[1],119%
same,cell count,[2],26.6%
same,cell count,[3],64.5%
same,cell count,[4],81.2%
same,cell count,[5],15.6%
same,cell count,[6],90.2%
"CC(C)C[C@H](NC(=O)[C@H](Cc1ccccc1)NC(=O)c1cnccn1)B(O)O [Bortezomib] + CCc1ccc(CCOc2ccc(CC3SC(=O)NC3=O)cc2)nc1 [pioglitazone] (first compound 0.005 µM, partner dose 10 µM)",cell count,[7],6.07%
same,cell count,[8],9.26%
same,cell count,[9],14%
same,cell count,[10],96.5%
"Cc1cc(Nc2cc(N3CCN(C)CC3)nc(/C=C/c3ccccc3)n2)n[nH]1 + COc1ccc(COc2ccc(Cc3cnc(N)nc3N)cc2OC)cc1 [GW2580] (first compound 0.2 µM, partner dose 5 µM)",cell count,[7],57.3%
same,cell count,[8],76.5%
same,cell count,[9],93.2%
same,cell count,[10],79.8%
"Cc1cn(-c2cc(NC(=O)c3ccc(C)c(Nc4nccc(-c5cccnc5)n4)c3)cc(C(F)(F)F)c2)cn1 [nilotinib] + O=C1NC(=O)/C(=C/c2ccc(-c3ccc(F)cc3O)o2)S1 [AS252424] (first compound 1 µM, partner dose 5 µM)",cell count,[7],115%
same,cell count,[8],116%
same,cell count,[9],89.5%
same,cell count,[10],133%
"CC(C)C[C@H](NC(=O)[C@H](Cc1ccccc1)NC(=O)c1cnccn1)B(O)O [Bortezomib] + CCCCCCCCCCCC1=C(O)C(=O)C=C(O)C1=O [Embelin] (first compound 0.005 µM, partner dose 6 µM)",cell count,[7],107%
same,cell count,[8],70.8%
same,cell count,[9],111%
same,cell count,[10],88.2%
"Cc1cn(-c2cc(NC(=O)c3ccc(C)c(Nc4nccc(-c5cccnc5)n4)c3)cc(C(F)(F)F)c2)cn1 [nilotinib] + CC(C)CCN1c2nc(Nc3cc(F)c(O)c(F)c3)ncc2N(C)C(=O)C1C [BID1870] (first compound 1 µM, partner dose 1 µM)",cell count,[7],73.2%
same,cell count,[8],79.3%
same,cell count,[9],86%
same,cell count,[10],114%
"Cc1cn(-c2cc(NC(=O)c3ccc(C)c(Nc4nccc(-c5cccnc5)n4)c3)cc(C(F)(F)F)c2)cn1 [nilotinib] + Oc1nc(-c2ccc(C(F)(F)F)cc2)nc2c1CSCC2 [XAV939] (first compound 1 µM, partner dose 10 µM)",cell count,[7],75.3%
same,cell count,[8],102%
same,cell count,[9],75.3%
same,cell count,[10],126%
"CC(C)C[C@H](NC(=O)[C@H](Cc1ccccc1)NC(=O)c1cnccn1)B(O)O [Bortezomib] + Oc1nc(-c2ccc(C(F)(F)F)cc2)nc2c1CSCC2 [XAV939] (first compound 0.005 µM, partner dose 10 µM)",cell count,[7],61.6%
same,cell count,[8],50.5%
same,cell count,[9],78.6%
same,cell count,[10],105%
"Cn1c(=O)n(-c2ccc(C(C)(C)C#N)cc2)c2c3cc(-c4cnc5ccccc5c4)ccc3ncc21 + Oc1cc(-c2nc(-c3ccccc3)[nH]c2-c2ccncc2)ccc1Cl [L779450] (first compound 0.02 µM, partner dose 1 µM)",cell count,[7],52.6%
same,cell count,[8],61.7%
same,cell count,[9],41.3%
same,cell count,[10],64.2%
"Cc1cc(Nc2cc(N3CCN(C)CC3)nc(/C=C/c3ccccc3)n2)n[nH]1 + COc1cc(N2CCC(N3CCN(C)CC3)CC2)ccc1Nc1ncc(Cl)c(Nc2ccccc2S(=O)(=O)C(C)C)n1 [NVP-TAE684] (first compound 0.2 µM, partner dose 0.4 µM)",cell count,[7],77%
same,cell count,[8],89%
same,cell count,[9],55.7%
same,cell count,[10],77.7%
"Cn1c(=O)n(-c2ccc(C(C)(C)C#N)cc2)c2c3cc(-c4cnc5ccccc5c4)ccc3ncc21 + Cc1cc([N+](=O)[O-])ccc1NS(=O)(=O)c1cc(Cl)ccc1Cl [FH535] (first compound 0.02 µM, partner dose 5 µM)",cell count,[7],55.4%
same,cell count,[8],55.7%
same,cell count,[9],52.5%
same,cell count,[10],70.8%
"Cc1cc(Nc2cc(N3CCN(C)CC3)nc(/C=C/c3ccccc3)n2)n[nH]1 + N#Cc1c(O)c2c(-c3ccc(-c4ccccc4O)cc3)csc2[nH]c1=O [A769662] (first compound 0.2 µM, partner dose 10 µM)",cell count,[7],110%
same,cell count,[8],80.1%
same,cell count,[9],76.7%
same,cell count,[10],107%
"CC(C)C[C@H](NC(=O)[C@H](Cc1ccccc1)NC(=O)c1cnccn1)B(O)O [Bortezomib] + COc1cc(N2CCC(N3CCN(C)CC3)CC2)ccc1Nc1ncc(Cl)c(Nc2ccccc2S(=O)(=O)C(C)C)n1 [NVP-TAE684] (first compound 0.005 µM, partner dose 0.4 µM)",cell count,[7],13.3%
same,cell count,[8],17%
same,cell count,[9],11.5%
same,cell count,[10],64%
"CC(C)C[C@H](NC(=O)[C@H](Cc1ccccc1)NC(=O)c1cnccn1)B(O)O [Bortezomib] + O=S(=O)(c1ccccc1)N(CC(F)(F)F)c1ccc(C(O)(C(F)(F)F)C(F)(F)F)cc1 [T0901317] (first compound 0.005 µM, partner dose 7 µM)",cell count,[7],6.89%
same,cell count,[8],12.8%
same,cell count,[9],7.11%
same,cell count,[10],103%
